# Hit rate of the full screen: of about 350,000 compounds, about 260 (0.074%) were called active. The shares of active, inactive and inconclusive entries below differ from those in the screen. The call rests on the fitted dose curve; in most records, active means well fitted inhibition curve with a large enough effect; inconclusive means small, poorly fitted or top-dose-only effect; inactive means no such curve, though single readings can be large or run the other way. A potency beside an inconclusive call is a rough fit, not a confirmed value.
# Target: Ferritin light chain (Equus caballus) (UniProt P02791)
# UniProt P02791, sequence (P02791 whole entry, looked up): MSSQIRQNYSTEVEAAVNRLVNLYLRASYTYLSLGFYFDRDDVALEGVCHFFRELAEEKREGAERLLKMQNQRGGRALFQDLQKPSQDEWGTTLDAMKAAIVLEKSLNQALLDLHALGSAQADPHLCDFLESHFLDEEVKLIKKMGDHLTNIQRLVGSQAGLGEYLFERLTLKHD
# Assay: qHTS Assay for Identification of Novel General Anesthetics; further: nearly all actives have a fitted effect of over 20% in size
# Settings: apoferritin/1-aminoanthracene competitive binding, fluorescence; activity change, negative = displacement: at 77.5 µM (top of the series)
# In short: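 Apoferritin-based anesthetic binding model; compound displacement of fluorescent 1-AMA measured as endpoint fluorescence after 10 minutes at room temperature, scaled to free-ligand and complex controls.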
# On the % scale 0 is the no-effect control and ±100 the full control effect; potency means the concentration at half of the fitted maximal effect; tags describe the fitted curve by direction and shape.
SMILES,Potency,"activity change, negative = displacement"
CCCC(C)c1nnc(NC(=O)CN2C(=O)c3ccccc3C2=O)s1 (stereo unspecified),"inconclusive: 25.1 µM [inhibitor, partial curve]",–
CC(C)=CCN1CCN(Cc2nc(-c3ccc(F)cc3)cs2)CC1CCO (stereo unspecified),–,inactive: 1.25%
COc1ccc(-c2cc(N)n(S(=O)(=O)c3ccc(F)cc3)n2)cc1OC,–,inactive: -7.96%
CSc1ccc(/C=N\NC(=O)COc2ccc(Cl)cc2Br)cc1,"inconclusive: 17.8 µM [inhibitor, partial curve]",–
Cc1ccc(-c2nc3ncccc3o2)cc1NC(=O)c1ccccc1Br,"inconclusive: 28.2 µM [inhibitor, single point]",–
CCCCCCSC1=C(C#N)C(c2ccc(C)o2)CC(=O)N1 (stereo unspecified),"inconclusive: 12.6 µM [inhibitor, partial curve]",–
Cc1c(C(=O)Nc2ccc(F)cc2)oc2ccc(S(=O)(=O)N3CCC4(CC3)OCCO4)cc12,"inconclusive: 20 µM [inhibitor, partial curve]",–
CN(C(=O)C1CCC(=O)N(Cc2cccc(F)c2)C1)C1CCCCC1 (stereo unspecified),–,inactive: -8.98%
FC(F)(F)c1cnc(Sc2nc3nccc(-c4ccc(Cl)cc4)n3n2)c(Cl)c1,"inconclusive: 3.16 µM [inhibitor, full curve]",–
Cc1nc2ccn(Cc3ccccc3)c(=O)c2cc1C(=O)NCc1ccccc1F,"inconclusive: 35.5 µM [inhibitor, single point]",–
COc1cccc(NC(=O)CN(C)C(=O)c2ccc3ccccc3c2)c1,"inconclusive: 15.8 µM [inhibitor, partial curve]",–
CC(C)Oc1ccc(CNCCC2(C(C)C)CCOC(C)(C)C2)cc1 (stereo unspecified),"inconclusive: 8.91 µM [inhibitor, partial curve]",–
COc1ccc(/C=C2\CCc3ccccc3C2=O)c(OC)c1OC,"inconclusive: 20 µM [inhibitor, partial curve]",–
CCOC(=O)/C(=C\C=C\N1CCOCC1)C(C)=O,"inconclusive: 22.4 µM [inhibitor, partial curve]",–
Cc1ccc(NC(=O)CCC(=O)NNC(=O)c2cccs2)cc1C,"inconclusive: 35.5 µM [inhibitor, single point]",–
CCOC(=O)c1c(CC(C)C)csc1/N=C/C1C(=O)CCCC1=O,"inconclusive: 50.1 µM [inhibitor, single point]",–
CSc1nc(C)c(Oc2ccccc2)c(=O)n1C,"inconclusive: 22.4 µM [inhibitor, partial curve]",–
COC(=O)c1ccccc1NC(=O)CCc1c(C)nc2c(c(C)nn2-c2ccccc2)c1C,"inconclusive: 6.31 µM [inhibitor, single point]",–
CCN1CCN(CCCOc2ccccc2-c2ccccc2)CC1,–,inactive: -3.01%
O=C1c2ccccc2NC(c2ccc(-c3ccc(Br)cc3)o2)N1O (stereo unspecified),"inconclusive: 7.94 µM [inhibitor, full curve, poor fit]",–
Cc1cc(=O)oc2cc(OCC(=O)OCC(=O)Nc3ccccc3C(C)C)ccc12,–,inactive: -11.3%

SMILES,Potency,"activity change, negative = displacement"
CO[C@H]1COC(=O)[C@@H](CCSC)NC(=O)C/C=C\[C@@H](C)COC(=O)[C@@H](OCc2ccccc2)/C=C\[C@@H]1C,–,inactive: -2.03% [at 15.3 µM]
COc1ccccc1NS(=O)(=O)c1cc([N+](=O)[O-])ccc1N/N=C/c1c[nH]c2ccccc12,"inconclusive: 15.8 µM [inhibitor, partial curve]",–
O=C(c1cccc(F)c1)N1CCC(c2c[nH]c3ccccc23)(c2c[nH]c3ccccc23)CC1,–,inactive: 9.83%
CCOc1ccc(NC(=O)NCCn2nnc3cc(S(=O)(=O)N(C)C)ccc32)cc1,"inconclusive: 31.6 µM [inhibitor, single point]",–
CCc1ccc(-c2nnn(CCC#N)n2)cc1,–,inactive: -8.99%
CCOC(=O)C1=C(CN2CCCCC2)NC(=O)NC1c1ccc(C)cc1 (stereo unspecified),–,inactive: -4.67%
Cn1c(CNc2nc(-c3ccccc3)cs2)nnc1SCC(=O)OC1CCCCC1,"inconclusive: 56.2 µM [inhibitor, single point]",–
Cc1cc(OCc2cc(C(=O)N3CCN(C)C(=O)[C@@H]3C)no2)cc(C)c1Cl,"inconclusive: 50.1 µM [inhibitor, single point]",–
CN([C@@H](Cc1ccc(OS(=O)(=O)c2cccc3cnccc23)cc1)C(=O)N1CCN(c2ccccc2)CC1)S(=O)(=O)c1cccc2cnccc12,"inconclusive: 15.8 µM [inhibitor, partial curve]",–
C#CCN(C(=O)c1cc(COc2ccc(C)c(C)c2)on1)C1CCCCC1,"inconclusive: 10 µM [inhibitor, full curve, poor fit]",–
O=C(NCCCN1CCCC1)c1ccc2c(Cl)c3c(nc2c1)CCCC3,"inconclusive: 31.6 µM [inhibitor, partial curve]",–
O=C(Nc1ccc(Oc2cccnc2)cc1)C1CCN(Cc2ccccc2)CC1,"inconclusive: 25.1 µM [inhibitor, partial curve]",–
CCCC(=O)NC(Nc1ccccc1F)C(Cl)(Cl)Cl (stereo unspecified),"inconclusive: 50.1 µM [inhibitor, single point]",–
O=C(OCC(=O)N1N=C(c2ccc(Cl)cc2)CC1c1ccco1)c1ccccc1O (stereo unspecified),"inconclusive: 50.1 µM [inhibitor, partial curve, poor fit]",–
CCn1c(C)c(C)c2cc(C(=O)NCCN3CCOCC3)ccc21,–,inactive: -11.1%
COCCCNC(=O)Cn1c(=O)n(Cc2ccc(C(=O)NCCc3ccc(OC)c(OC)c3)cc2)c(=O)c2ccccc21,"inconclusive: 31.6 µM [inhibitor, single point]",–
COc1ccccc1N1CCN(S(=O)(=O)c2ccc3c4c(cccc24)C(=O)N3)CC1,"inconclusive: 28.2 µM [inhibitor, partial curve]",–
C/C(=N/NC(=O)CNC(=O)c1cccs1)c1ccc(Cl)cc1,"inconclusive: 31.6 µM [inhibitor, single point]",–
CC1CCC(NC(=S)NCCN(C)C)CC1 (stereo unspecified),–,inactive: -5.85%
COc1ccccc1NC(=O)C1=C(C)Nc2nc(-c3ccccc3)nn2C1c1ccccn1 (stereo unspecified),"inconclusive: 22.4 µM [inhibitor, partial curve, poor fit]",–

# Reference: PubChem BioAssay AID485281 (National Center for Advancing Translational Sciences (NCATS), 2010)
